± gives the standard deviation of the averaged measurements. Whole data set: some 33,000 sequences, median “E-score (dimensionless, -0.5 to 0.5)” near -0.049, cut for the highest 2% near 0.37. The list shows a part of the results.
Test system: T1, PmTbr T-box DNA-binding domain (GST fusion)
T1 sequence: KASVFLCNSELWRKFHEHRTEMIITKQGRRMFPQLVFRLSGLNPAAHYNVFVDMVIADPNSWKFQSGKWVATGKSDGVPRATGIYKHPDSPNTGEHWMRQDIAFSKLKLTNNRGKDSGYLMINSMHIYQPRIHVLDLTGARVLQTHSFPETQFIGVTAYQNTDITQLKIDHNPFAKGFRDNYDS
Test: PBM E-score of 8-mer (E-score (dimensionless, -0.5 to 0.5)); Tbr is Tbrain of the sea star Patiria miniata (Pm) or the sea urchin Strongylocentrotus purpuratus (Sp); higher = stronger binding preference; most listed sequences are background and not binding sites
Details: the construct has about 5 more residues each side
Method in brief: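 Using the Universal PBM Analysis Suite, every ungapped 8-mer received an enrichment E-score averaged over duplicate arrays. Probe intensities came from double-stranded Universal Agilent oligonucleotide arrays incubated with 200 nM GST-fused Tbr T-box DNA-binding domain in PBS (pH 7.5). That protein was expressed in BL21 E. coli at 20 °C and purified by glutathione affinity chromatography.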

Sequence | PBM E-score of 8-mer
ACTGGGGC | -0.0781 ± 0.041
CCTTAAGC | 0.0667 ± 0.076
TCGAGCAA | -0.0555 ± 0.015
AGGACATG | -0.214 ± 0.0065
CGGACTTA | -0.211 ± 0.035
GCAGGCGA | 0.15 ± 0.037
GACAGGTC | 0.183 ± 0.051
CAGCGTTA | 0.167 ± 0.044
TAAATAAA | -0.116 ± 0.1
ACTAAGTA | -0.253 ± 0.018
AGGTATGC | -0.0381 ± 0.013
AAGGGCGC | -0.0107 ± 0.013
CCGGCCAC | -0.035 ± 0.03
CATCTACC | -0.00721 ± 0.022
ATAGTGCG | 0.158 ± 0.031
AACACGGA | -0.00512 ± 0.035
CAAAAATG | -0.0391 ± 0.15
AAAGGTTG | -0.0117 ± 0.044
CCTGACGC | 0.205 ± 0.055
AGGACAGG | -0.139 ± 0.04
CTATTTGA | -0.308 ± 0.0073
AACTAGGA | -0.224 ± 0.004
GAAGATAC | -0.0567 ± 0.0084
TAATGTCA | -0.0155 ± 0.081
CCCACCCA | 0.0945 ± 0.0051

Sequence | PBM E-score of 8-mer
AGTATTAT | -0.116 ± 0.014
AACTATGG | -0.182 ± 0.02
GCTAGGCC | -0.143 ± 0.074
AGAACTTC | -0.135 ± 0.029
ACCAGAGA | -0.0847 ± 0.0015
GTTAACGA | 0.242 ± 0.016
ACTGGACG | 0.0928 ± 0.045
CAGCTGGA | -0.221 ± 0.029
GGCGAATA | 0.0105 ± 0.026
GCACTAAA | 0.14 ± 0.028
GGAGTCAA | -0.0847 ± 0.032
AGATTGTC | 0.216 ± 0.063
CTCGTTAC | -0.136 ± 0.0026
TATGTCGA | 0.0253 ± 0.041
AAATACGT | 0.0188 ± 0.0064
CTCTGCGA | -0.0978 ± 0.06
AACGAACG | -0.0261 ± 0.026
CTTGTCTA | -0.142 ± 0.021
AAGGCTCC | -0.227 ± 0.013
CCGACCCC | -0.247 ± 0.027
AGATCCCA | -0.104 ± 0.0058
AGACGCTC | -0.144 ± 0.0057
CTATCACC | 0.431 ± 0.0063
CTTCTTGA | -0.0622 ± 0.074
CTTTACAA | -0.00427 ± 0.0057

Sequence | PBM E-score of 8-mer
CTCAAGGA | -0.141 ± 0.013
AAGCGCTG | 0.0223 ± 0.0011
AAGACCTC | -0.0546 ± 0.021
TCAGCCGA | -0.213 ± 0.01
ACCCATAG | -0.0519 ± 0.053
CCTCGCTA | 0.151 ± 0.047
CTGTTACA | 0.197 ± 0.0076
GCAGGACA | -0.153 ± 0.09
ACCCGTTA | 0.168 ± 0.013
AAATAAGA | -0.141 ± 0.044
ATATAAGA | -0.208 ± 0.029
CCGCTCGC | 0.0846 ± 0.019
CAATGCTA | -0.156 ± 0.039
CGTTTGCA | 0.0816 ± 0.0086
CTGTCGAA | 0.125 ± 0.0096
CAAGGAAC | -0.181 ± 0.032
AGGCCAAA | -0.26 ± 0.0079
AAGATTCG | -0.0299 ± 0.017
GCTTAAGA | -0.259 ± 0.0077
AAAGCAAG | -0.0735 ± 0.0072
AGTGATAA | 0.317 ± 0.052
AGCTAACG | 0.157 ± 0.031
TCAGGCAA | -0.187 ± 0.025
ATGCAGAC | -0.201 ± 0.073
CCCATGAA | -0.0505 ± 0.00062

Sequence | PBM E-score of 8-mer
CGGAGCTC | -0.248 ± 0.037
CTTCCAAA | -0.193 ± 0.023
ACTTAGAT | 0.109 ± 0.0052
GGACATAC | -0.0892 ± 0.092
AACAAATG | -0.0252 ± 0.075
CCTTTTAC | 0.0345 ± 0.095
AGTAAAAC | -0.0783 ± 0.055
ACTGCCGC | -0.092 ± 0.042
CGTGCATC | -0.188 ± 0.022
CCCGCGAA | 0.3531 ± 0.0014
ATCGTAAG | -0.227 ± 0.013
GAAGATCC | -0.101 ± 0.034
AACGTTTG | 0.0016 ± 0.0022
CAGCTAGA | -0.0602 ± 0.025
AGATAACA | 0.224 ± 0.069
GTGCTCTA | -0.209 ± 0.032
CATAGAAC | -0.0439 ± 0.09
CCGATACA | 0.031 ± 0.021
CCCTCTGC | 0.0209 ± 0.072
ATGCTGCG | -0.0411 ± 0.0053
AATGGCGG | -0.148 ± 0.0088
CTCAAACC | -0.2904 ± 0.0017
AATCGGTC | -0.191 ± 0.069
CCATCTTA | -0.0257 ± 0.081
CACAGTAG | 0.2113 ± 0.0006

Sequence | PBM E-score of 8-mer
CGAGGGAG | -0.0838 ± 0.048
ACTAGTTG | 0.0914 ± 0.07
GTACAGAC | -0.107 ± 0.013
AGTCTGCA | -0.133 ± 0.036
AAGTCTGG | -0.278 ± 0.022
ATCATATG | -0.0732 ± 0.1
CAGCAGCA | -0.0444 ± 0.023
GATAACGA | 0.0451 ± 0.049
GACTCGCA | 0.229 ± 0.025
ATGTAGAG | -0.23 ± 0.043
ATCCATCG | -0.0819 ± 0.025
CACAATGA | 0.0344 ± 0.009
CAAAATTG | -0.0773 ± 0.059
CCCTCTAG | -0.0329 ± 0.061
AGTCGGGA | 0.0954 ± 0.021
AACCCGGC | -0.239 ± 0.059
GACTGCGC | -0.107 ± 0.044
TAGGGGCA | -0.152 ± 0.014
CTTTAAAC | -0.149 ± 0.014
CGGATGAA | -0.299 ± 0.0067
GCTCTTCA | 0.0301 ± 0.094
CATACTCA | -0.0462 ± 0.021
ATAAAACA | -0.0497 ± 0.037
ACCTCGTA | 0.176 ± 0.033
CGCCACAC | 0.362 ± 0.014

Sequence | PBM E-score of 8-mer
CCATAGCA | -0.0644 ± 0.11
AACTTCGA | 0.0686 ± 0.023
CTCAGATA | -0.206 ± 0.0028
CTTATTGC | -0.0461 ± 0.023
AAGTATGT | -0.0434 ± 0.021
CAGGCGCA | -0.00442 ± 0.067
AGAACGTG | 0.221 ± 0.037
AATAACAT | -0.149 ± 0.06
CGGTGGGC | -0.131 ± 0.04
CAACCTTG | -0.0709 ± 0.09
AGCAGTGC | 0.0683 ± 0.13
TTGCGCAA | 0.108 ± 0.0064
TAGGCGGA | -0.154 ± 0.036
TAGGGTCA | -0.0997 ± 0.066
ACATCGAC | 0.223 ± 0.032
AATTTACT | -0.162 ± 0.059
AGACCGCC | -0.174 ± 0.068
CCCGGACG | -0.193 ± 0.045
ATCACCAA | 0.17 ± 0.016
ATCCCACC | 0.224 ± 0.0037
CGCATTTA | 0.156 ± 0.015
CCCAGAGG | -0.0696 ± 0.0034
ATCCGAAG | -0.183 ± 0.031
AGGCGCAA | 0.2862 ± 0.00067
TTCCGCAA | -0.0153 ± 0.014

Sequence | PBM E-score of 8-mer
ATATCCCG | -0.208 ± 0.061
CATAGTAC | -0.153 ± 0.047
GGTTCCGA | -0.27 ± 0.02
GAACCCTC | -0.247 ± 0.055
CGAACTAG | 0.133 ± 0.031
CAGTTTCA | 0.0662 ± 0.076
CGTCTATC | -0.284 ± 0.0085
CTTGTAGA | -0.126 ± 0.089
GTACCCAC | 0.0586 ± 0.07
GTAACATA | -0.0543 ± 0.019
GTTTGCTA | -0.00402 ± 0.0046
CCACTATC | 0.174 ± 0.049
GAACTTAA | -0.0678 ± 0.014
TTAACGAA | 0.0793 ± 0.059
AGGCACGC | 0.0549 ± 0.064
CTTCCGCC | -0.0413 ± 0.025
ATCATTGA | -0.0331 ± 0.14
GTATGACA | 0.18687 ± 7.1e-05
ATGAGAGC | -0.247 ± 0.086
TACGTCAA | -0.229 ± 0.025
CCTGAGCG | -0.106 ± 0.02
AACTAATG | -0.119 ± 0.078

Reference: the supplement of paper PMC4166925
